Screen size: about 420,000 compounds; about 50,000 (12%) were called active. This list was built around the results that the source calls inconclusive (neither active nor inactive); the mix of calls is not that of the screen. The call rests on the fitted dose curve; in most records, active means well fitted inhibition curve with a large enough effect; inconclusive means small, poorly fitted or top-dose-only effect; inactive means flat fitted curve, though single readings scatter. Potencies of inconclusive entries are left out as doubtful fits.
test: qHTS for Inhibitors of human tyrosyl-DNA phosphodiesterase 1 (TDP1): qHTS in cells in presence of CPT; conditions: chicken DT40 Tdp1-/-;hTDP1 cells + 20 nM CPT, ATP luminescence, 48 h; activity change, negative = growth inhibition: at 46.2 µM (top of the series) unless noted; further: nearly all actives have a fitted effect of over 55% in size
Summary of the method: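 Chicken DT40 Tdp1-/- cells complemented with human TDP1, 400 cells/well, exposed to compounds plus 20 nM camptothecin for at least 48 h at 37 C; viability read as ATP content by CellTiter-Glo luminescence.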
On the % scale 0 is the no-effect control and ±100 the full control effect; potency means the concentration at half of the fitted maximal effect; tags describe the fitted curve by direction and shape.

| Compound | Potency | activity change, negative = growth inhibition |
| --- | --- | --- |
| COc1cc(=O)n2c(c1C(=O)NCc1ccco1)CCN(Cc1ccc(F)cc1Cl)CC2 | active: 0.206 µM |  |
| COC(=O)c1ccc(-c2cc(CC3(C(=O)OC)CCN(C(=O)OC(C)(C)C)CC3)on2)cc1 | active: 23.1 µM |  |
| O=C(COC(=O)c1ccc(S(=O)(=O)N2CCCCCC2)cc1)NCc1ccc(F)cc1 | inactive |  |
| CSc1ccc(CNC(=O)C2Cc3cc(S(=O)(=O)N4CCCC4)ccc3N2C(C)=O)cc1 (configuration not stated) | inconclusive [inhibitor, single point] |  |
| O=C(CSc1nc2ccccc2nc1Cc1ccc(Cl)cc1)N1CCCCC1 | inconclusive [inhibitor, single point] |  |
| COc1ccc2c(c1)C1=NN(/C(C)=C/C(C)=O)C(c3ccc(F)cc3)C1CC2 (configuration not stated) | inconclusive [inhibitor, single point] |  |
| COc1cc2c(cc1OC)CN(CCC(=O)c1ccc(Br)cc1)CC2 | active: 3.66 µM |  |
| N#Cc1ccc(CN2CCN(C(=O)CC(NC(=O)c3ccccc3)c3ccccc3)CC2)cc1 (configuration not stated) | inconclusive [inhibitor, partial curve, poor fit] |  |
| O=C(NCc1cccnc1)Nc1ccccc1F | inactive |  |
| COc1ccccc1N(C)S(=O)(=O)c1ccc(C(=O)Nc2cccc(S(=O)(=O)N3CCOCC3)c2)cc1 | inconclusive [inhibitor, single point] |  |
| CCOC(=O)C1CCN(C(=O)CN(c2ccc(Cl)c(C(F)(F)F)c2)S(C)(=O)=O)CC1 | inconclusive [inhibitor, single point] |  |
| CNc1c(C(=O)O)ccc2c1C(=O)c1ccccc1C2=O | inconclusive [inhibitor, partial curve] |  |
| COc1cc(CCN2C(=O)c3cccc4cccc(c34)C2=O)c(S(=O)(=O)NCCO)cc1OC | inconclusive [inhibitor, single point] |  |
| Cc1ccc2nc(SCC(=O)Nc3cccnc3Cl)[nH]c2c1 | inactive |  |
| COc1cccc(/C=N/n2c(C)nc3ccccc3c2=O)c1O | inactive |  |
| N#Cc1ccc(C#Cc2ccc3oc4ccccc4c(=O)c3c2)cc1 | inconclusive [inhibitor, single point] |  |
| O=C(N/N=C/c1ccccn1)c1cc([N+](=O)[O-])cc([N+](=O)[O-])c1 | inconclusive [inhibitor, single point] |  |
| COc1ccccc1N1CCN(c2ncc3c(n2)CCN(Cc2ccc(C)s2)C3)CC1 | inconclusive [inhibitor, single point] |  |
| Cc1nnc(N)s1 | inactive |  |
| Cc1onc(-c2ccccc2Cl)c1C(=O)NC(=S)NCC(=O)c1ccccc1 | inactive |  |
| Cc1nc(SCCOc2ccccc2)[nH]c(=O)c1Cc1ccccc1 | inconclusive [inhibitor, single point] |  |
| CCCCC(=O)N/N=C/c1ccc(Sc2cccc3cccnc23)o1 | inconclusive [inhibitor, single point] |  |
| CCC1CCCCN1S(=O)(=O)c1ccc2c(c1)CCN2C(=O)C1CCC1 (configuration not stated) | inconclusive [inhibitor, single point] |  |
| N=c1c2c(n(Cc3ccc(Br)cc3)c3c1CCC3)CCCC2 | active: 0.92 µM |  |

| Compound | Potency | activity change, negative = growth inhibition |
| --- | --- | --- |
| Cc1cccc(NC(=O)CSc2nc3c(c(=O)[nH]2)CCCC3)c1C | inactive |  |
| O=C(CCc1nc2sc3c(c2c(=O)[nH]1)CCCC3)NCC(=O)Nc1ccccc1Br | inactive |  |
| CN1CCN(NC(=S)Nc2ccc(Oc3ccccc3)cc2)CC1 | inactive |  |
| CCCCCOc1ccc(OC(=O)c2ccncc2)cc1 | active: 11.6 µM |  |
| O=C(Cn1nnc(-c2ccccc2)n1)NCc1ccc2c(c1)OCO2 | inactive |  |
| CNc1cncc(-c2cccc(C(=O)NC3CC3)c2)n1 | inconclusive [inhibitor, single point] |  |
| CCOC(=O)c1cnc(Nc2nc3ccccc3o2)nc1CSc1ncccn1 | inactive |  |
| Cc1ccc(NC(=O)CN(C)C(=O)COc2ccc(C(=O)c3ccc(F)cc3)cc2)cc1 | inactive |  |
| COc1ccccc1CN1CCCC(C(=O)N(C)Cc2ccccc2)C1 (configuration not stated) | inconclusive [inhibitor, single point] |  |
| CCNC(=O)NC(=O)C(C)OC(=O)c1cc(S(=O)(=O)N2CCCCCC2)ccc1OC (configuration not stated) | inconclusive [inhibitor, partial curve, poor fit] |  |
| CN1CCN(C(=O)CN(c2cccc(Br)c2)S(=O)(=O)c2ccccc2)CC1 | inactive |  |
| O=C1C(Cc2ccccc2)Nc2ncnc(N3CCN(c4ccccc4)CC3)c2N1Cc1ccc(Cl)cc1 (configuration not stated) | inconclusive [inhibitor, single point] |  |
| CCCCn1nnnc1C1(C)CCC(=O)N1CC(F)(F)F (configuration not stated) | inactive |  |
| COc1ccc(Cl)cc1NC(=O)CSc1nc(-c2cccs2)cc(C(F)(F)F)n1 | active: 23.1 µM |  |
| NC(COCc1ccccc1)c1csc(NC(=O)Nc2cccc(Cl)c2)n1 (configuration not stated) | active: 23.1 µM |  |
| CN(C)c1ccc(C=Nc2ccc(/C=C/c3ccnc4ccccc34)cc2)cc1 | inconclusive [inhibitor, single point] |  |
| COc1ccc(OCC(=O)Nc2ccc3c(c2)nc(CN2CCCC2)n3C)cc1 | inconclusive [inhibitor, single point] |  |
| CCCn1c(=O)c(C(=O)NC(C)c2ccccc2)c(O)c2ccccc21 (configuration not stated) | inconclusive [inhibitor, single point] |  |
| COc1ccc(C(=O)C2CCCN(Cc3c(O)cccc3OC)C2)cc1OC (configuration not stated) | inconclusive [inhibitor, single point] |  |
| Cc1nc(NCc2cnn(C)c2)sc1-c1ccn(-c2cccc(F)c2)n1 |  | inactive: 21.6% [at 9.04 µM] |
| CCN(CC)C(=O)Cn1cc(SCC(=O)Nc2cc(OC)ccc2OC)c2ccccc21 | inconclusive [inhibitor, single point] |  |
| Cc1ccc(Cl)cc1N1CCN(C(=O)c2sc3nc4n(c(=O)c3c2C)CCC4)CC1 | active: 14.6 µM |  |
| CN(C)CCNC(=O)c1ccc2nc(Cc3ccccc3)oc2c1 | inconclusive [inhibitor, single point] |  |
